# Counter-ions that a name gives are not always drawn. This is one part of the list. Single values of this set are uncertain. Values with irradiation are relative to irradiated vehicle.
# How the values were obtained:
# A549-Dual [1] = assay: NF-kB reporter (SEAP) activity, viability-corrected, relative to vehicle (fold change vs vehicle); higher = more activation of STING-IRF / NF-kB immune response reporter; conditions: 10 µM
# A549-Dual [2] = assay: ISRE reporter (Lucia luciferase) activity, viability-corrected, relative to vehicle (fold change vs vehicle); higher = more activation of STING-IRF / NF-kB immune response reporter; conditions: 10 µM
# 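Throughout, for NF-kB reporter (SEAP) activity, viability-corrected, relative to vehicle: viability correction based on the alamar blue assay, with concentrations leaving 10% survival or less dropped.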
SMILES,NF-kB reporter (A549-Dual [1]; irradiation: 8 Gy/4 fr),NF-kB reporter (A549-Dual [1]; irradiation: none),ISRE reporter (A549-Dual [2]; irradiation: 8 Gy/4 fr),ISRE reporter (A549-Dual [2]; irradiation: none)
CCOc1ccc(Cc2cc(C3OC(CO)C(O)C(O)C3O)ccc2Cl)cc1 (centres undefined) [Dapagliflozin],0.809,0.844,0.79,0.77
CC(C)C(N)C(=O)OCC(CO)OCN1C=NC2C(=O)NC(N)=NC21.Cl (centres undefined) [Valganciclovir HCl],0.559,0.886,0.58,0.747
CC(C)=CCC/C(C)=C/CO [Geraniol],1.33,0.738,1.42,0.763
CO/N=C(\C(=O)NC1C(=O)N2C(C(=O)O)=C(CSC(=O)c3ccco3)CSC12)c1csc(N)n1 (centres undefined) [Ceftiofur],0.736,0.889,0.675,0.643
CCC(C)C(N)C(=O)O (centres undefined) [isoleucine],1.22,0.901,1.22,0.866
Cc1cc(O)cc(O)c1 [Orcinol],1,0.921,0.991,0.975
O=C(Nc1ccc(Oc2ccc(Cl)cc2)c(Cl)c1)c1cc(I)cc(I)c1O [Rafoxanide],0.599,0.679,0.416,0.455
CCCCC1OC(=O)c2ccccc21 (centres undefined) [3-n-Butylphathlide],0.824,0.625,0.714,0.628
C=C1CCC(O)C/C1=C/C=C1\CCCC2(C)C1CCC2C(C)CCCC(C)C (centres undefined) [cholecalciferol (Vitamin D3)],0.528,0.811,0.369,0.487
CC1OC2(CS1)CN1CCC2CC1.Cl (centres undefined) [Cevimeline],0.615,0.77,0.594,0.466
COc1ccccc1OCC(O)CN1CCN(CC(=O)Nc2c(C)cccc2C)CC1.Cl.Cl (centres undefined) [Ranolazine 2HCl],0.894,1.05,0.973,0.802
Cc1c[nH]c(=O)[nH]c1=O [Thymine],0.737,0.789,0.675,0.633
C=CC1CN2CCC1CC2C(O)c1ccnc2ccc(OC)cc12.C=CC1CN2CCC1CC2C(O)c1ccnc2ccc(OC)cc12.O.O.O=S(=O)(O)O (centres undefined) [Quinidine sulfate],0.757,1.07,0.966,0.784
CC1=C[C@H]2C(=O)O[C@H]3C[C@@H](C/C=C(\C)C[C@@H](C)/C=C/C=C4\CO[C@H](/C1=N\O)[C@@]42O)O[C@@]1(CC[C@H](C)[C@@H](C)O1)C3.CC[C@H]1O[C@]2(CC[C@@H]1C)C[C@@H]1C[C@@H](C/C=C(\C)C[C@@H](C)/C=C/C=C3\CO[C@@H]4/C(=N\O)C(C)=C[C@@H](C(=O)O1)[C@]34O)O2 [Milbemycin Oxime],0.628,0.734,0.765,0.749
N=c1cc(N2CCCCC2)nc(N)n1OS(=O)(=O)O [Minoxidil sulphate],1.46,0.754,1.62,0.916
NC(=O)OCC(COC(N)=O)c1ccccc1 [Felbamate],0.729,0.753,0.744,0.703
CC(C)(C)N.CCCC(NC(C)C(=O)N1C(C(=O)O)CC2CCCCC21)C(=O)OCC (centres undefined) [Perindopril Erbumine],0.977,1.44,0.798,0.928
Cn1c(=O)c2c(ncn2CCO)n(C)c1=O [Etofylline],0.649,0.773,0.76,0.664
O=C1NC(c2ccccc2)(c2ccccc2)C(=O)N1COP(=O)([O-])[O-].[Na+].[Na+] [Fosphenytoin (disodium)],0.691,0.856,0.654,0.614

SMILES,NF-kB reporter (A549-Dual [1]; irradiation: 8 Gy/4 fr),NF-kB reporter (A549-Dual [1]; irradiation: none),ISRE reporter (A549-Dual [2]; irradiation: 8 Gy/4 fr),ISRE reporter (A549-Dual [2]; irradiation: none)
CC(NC(CCc1ccccc1)C(=O)O)C(=O)N1CCCC1C(=O)O.O.O (centres undefined) [Enalaprilat Dihydrate],0.929,1.03,0.992,0.821
Cc1cccc(C#Cc2ccccc2)n1,0.764,1.14,0.426,0.71
C/C(=C\CO)CCCC(C)CCCC(C)CCCC(C)C (centres undefined) [Phytol],0.41,0.631,0.509,0.489
Cc1cc(C)cc(NC(=O)Cc2ccc(OC(C)(C)C(=O)[O-])cc2)c1.[Na+] [Efaproxiral Sodium],0.701,0.764,0.756,0.743
CC(O)(P(=O)(O)O)P(=O)(O)O [Etidronate],0.872,0.931,0.919,0.961
CCOC(=O)C(CCc1ccccc1)NC(C)C(=O)N(CC(=O)O)C1Cc2ccccc2C1.Cl (centres undefined) [Delapril Hydrochloride],0.878,0.59,0.81,0.361
Cc1cc(C)nc([N]([Na])S(=O)(=O)c2ccc(N)cc2)n1 [Sulfamethazine Sodium Salt],0.888,0.954,0.768,0.793
NC(=O)NC(CCC(=O)O)C(=O)O (centres undefined) [Carglumic Acid],0.991,0.944,1.02,0.799
CCCCC/C=C\C/C=C\CCCCCCCC(=O)O [Linoleic acid],0.96,0.68,1.04,0.629
CCCCCCCCCCCC(CC1OC(=O)C1CCCCCC)OC(=O)C(CC(C)C)NC=O (centres undefined) [Orlistat],0.843,0.666,0.667,1.31
O=C(Cn1cnnn1)NC1C(=O)N2C(C(=O)O)=C(CSc3nncs3)CSC12 (centres undefined) [Ceftezole],1.29,1.4,1.42,1.38
O=C(O)CCC(=O)O.O=C(OC1CN2CCC1CC2)N1CCc2ccccc2C1c1ccccc1 (centres undefined) [Solifenacin succinate],0.799,1.05,1.02,1.5
Cc1cc(=O)[nH]c(=S)[nH]1 [Methylthiouracil],0.777,1.1,0.827,0.819
NCC1OC(OC2C(CO)OC(OC3C(O)C(N)CC(N)C3OC3OC(CN)C(O)C(O)C3N)C2O)C(N)C(O)C1O.O=S(=O)(O)O (centres undefined) [Neomycin sulfate],0.931,0.998,0.847,0.999
CC(C)(C)C1NC(=O)OC2CCCC2OC/C=C/C(F)(F)c2nc3ccccc3nc2OC2CC(C(=O)NC3(C(=O)NS(=O)(=O)C4(C)CC4)CC3C(F)F)N(C2)C1=O (centres undefined) [Glecaprevir],0.777,0.944,0.928,1.1
CN/C(=C\[N+](=O)[O-])NCCSCc1ccc(CN(C)C)o1 [Ranitidine],0.78,0.864,0.668,0.861
O=C(c1ccc(F)cc1)C1CCN(CCn2c(=O)[nH]c3ccccc3c2=O)CC1 [Ketanserin],1.07,0.876,0.971,0.682
COc1ccc2c(OC3CC4C(=O)NC5(C(=O)NS(=O)(=O)C6CC6)CC5/C=C\CCCCN(C)C(=O)C4C3)cc(-c3nc(C(C)C)cs3)nc2c1C (centres undefined) [Simeprevir],0.506,1.47,0.273,0.909
O=C(O)c1ccncc1 [Isonicotinic acid],0.768,0.664,0.989,0.627

SMILES,NF-kB reporter (A549-Dual [1]; irradiation: 8 Gy/4 fr),NF-kB reporter (A549-Dual [1]; irradiation: none),ISRE reporter (A549-Dual [2]; irradiation: 8 Gy/4 fr),ISRE reporter (A549-Dual [2]; irradiation: none)
CC1CCC(C(C)C)C(O)C1 (racemic) [DL-Menthol],1.11,0.686,1.18,0.806
CCCCc1nc(Cl)c(CO)n1Cc1ccc(-c2ccccc2-c2nnn[nH]2)cc1 [Losartan],0.708,0.717,0.691,0.471
COc1cc(C=O)ccc1O [Vanillin],0.758,0.783,0.844,0.709
OCCc1ccc(O)cc1 [Tyrosol],0.707,0.624,0.827,0.768
NCCCC[C@H](N)C(=O)O [L-lysine],1.58,0.774,1.59,0.972
N=C(N)NS(=O)(=O)c1ccc(N)cc1 [Sulfaguanidine],0.849,1.09,0.8,0.779
CN(C)CCC(c1ccccc1)c1ccccn1.O=C(O)/C=C\C(=O)O (centres undefined) [Pheniramine Maleate],0.862,1.27,0.987,1.11
C/C=C1/C(OC2OC(CO)C(O)C(O)C2O)OC=C(C(=O)OC)C1CC(=O)OCCc1ccc(O)c(O)c1 (centres undefined) [Oleuropein],1.65,0.637,1.59,0.705
NC(=O)N1c2ccccc2CC(=O)c2ccccc21 [Oxcarbazepine],0.784,0.764,0.67,0.63
NC(=O)c1cn(Cc2c(F)cccc2F)nn1 [Rufinamide],0.634,0.969,0.686,0.904
NCCCCC(NC(=O)C1CCCN1C(=O)C1CSSCC(NC(=O)CNC(=O)CNC(=O)CN)C(=O)NC(Cc2ccc(O)cc2)C(=O)NC(Cc2ccccc2)C(=O)NC(CCC(N)=O)C(=O)NC(CC(N)=O)C(=O)N1)C(=O)NCC(N)=O (centres undefined) [Terlipressin Acetate],1.06,1.77,0.788,1.32
"C=C1C(=O)OC2C1CC/C(C)=C/CCC1(C)OC21 (single isomer, unassigned; (-)) [(-)-Parthenolide]",1.11,0.503,0.547,0.362
Cl.Nc1cc(Cl)c(NC2=NCCN2)c(Cl)c1 [Apraclonidine HCl],0.624,0.572,0.633,0.449
CC(C)Oc1ccc2c(=O)c(-c3ccccc3)coc2c1 [Ipriflavone (Osteofix)],0.832,0.83,0.835,0.941
O=C(OC1CC2CC3CC(C1)N2CC3=O)c1c[nH]c2ccccc12 (centres undefined) [Dolasetron],0.609,1.02,0.711,0.761
CC(C)(CO)C(O)C(=O)NCCC(=O)[O-].[Na+] [D-Pantothenate Sodium],0.67,0.651,0.812,0.515
CCCCCOc1ccc(-c2ccc(-c3ccc(C(=O)NC4CC(O)C(O)NC(=O)C5C(O)C(C)CN5C(=O)C(C(C)O)NC(=O)C(C(O)C(O)c5ccc(O)cc5)NC(=O)C5CC(O)CN5C(=O)C(C(C)O)NC4=O)cc3)cc2)cc1 (centres undefined),0.925,1.41,0.9,1.5
CC1=C(C(=O)OC(C)C)C(c2cccc([N+](=O)[O-])c2)C(C(=O)OC2CN(C(c3ccccc3)c3ccccc3)C2)=C(N)N1 (centres undefined) [Azelnidipine],0.376,1.37,0.445,0.789

# — the supplement of paper PMC9174493
